Experimental data: PubChem BioAssay AID504832 (National Center for Advancing Translational Sciences (NCATS), 2011)
The whole screen tested about 310,000 compounds, of which about 18,000 (5.8%) were called active. The shares of active, inactive and inconclusive entries below differ from those in the screen. Calls follow the shape of the dose curve; as a rule, active = well fitted inhibition curve with a large enough effect; inconclusive = small, poorly fitted or top-dose-only effect, or another doubt; inactive = no such curve, though single readings can be large or run the other way. No potency is given beside an inconclusive call; the fits are too rough.

Assay: Primary qHTS for delayed death inhibitors of the malarial parasite plastid, 48 hour incubation
Details: P. falciparum luciferase growth in erythrocytes; series mostly up to 28.7 µM
In short: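 A one-generation exposure of luciferase-tagged malaria parasites in RPMI 1640/Albumax erythrocyte culture, 37 C and 5% CO2. Inhibition is inferred from decreased luminescence after adding detection reagent.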
Potency is read from the fitted curve at half-maximal effect; tags tell the direction and shape of the fitted curve.

| SMILES | Potency |
| --- | --- |
| NNC(=O)c1cc(C23CC4CC(CC(C4)C2)C3)[nH]n1 | inactive |
| CCc1ccc(N=C2NC(=O)CS2)cc1 | inconclusive [inhibitor, full curve, poor fit] |
| O=C(COc1ccccc1)Nc1ccccc1N1CCN(c2ccccc2)CC1 | inconclusive [inhibitor, single point] |
| O=C(c1ccc([N+](=O)[O-])o1)N1CCN(c2nc3c(Cl)cccc3s2)CC1 | active: 1.31 µM |
| COc1ccc2ccc(O)c(CN3CCN(S(=O)(=O)c4cccc(C(F)(F)F)c4)CC3)c2c1 | inconclusive [inhibitor, single point] |
| COc1ccc2cc(CN(Cc3ccco3)C(c3nnnn3C3CCCCC3)C(C)C)c(=O)[nH]c2c1 (stereo not drawn) | inconclusive [inhibitor, partial curve, poor fit] |
| CCC(=O)Nc1ccc(C(=O)CSc2nc3ccccc3cc2CC)cc1 | inconclusive [inhibitor, single point] |
| c1ccc(-c2nc(NCc3ccco3)c3oc4ccccc4c3n2)cc1 | inconclusive [inhibitor, single point] |
| O=C(c1cccc(-c2ccco2)c1)N1CCCC(N2CCN(c3ccc(F)cc3)CC2)C1 (stereo not drawn) | inconclusive [inhibitor, partial curve] |
| O=C(CCNc1n[nH]c(=O)[nH]c1=O)N/N=C\c1cccc(OCc2ccccc2)c1 | inconclusive [inhibitor, single point] |
| C/C(=N/NC(=O)C1COc2ccccc2O1)c1ccc(Br)s1 (stereo not drawn) | inconclusive [inhibitor, single point] |
| CCOc1ccccc1N(CC(=O)NC1CCCCC1)C(=O)c1nsc(Cl)c1Cl | inconclusive [inhibitor, partial curve, poor fit] |
| COc1cc(CN2CCN(CCCc3ccccc3)C(CCO)C2)cc(OC)c1O (stereo not drawn) | inactive |
| CC(C(=O)NC1CCCC1)N(c1ccc(Oc2ccccc2)cc1)S(C)(=O)=O (stereo not drawn) | inconclusive [inhibitor, single point] |
| Fc1ccc(Cn2nnnc2C(c2ccc(Cl)cc2)N2CCSCC2)cc1 (stereo not drawn) | inconclusive [inhibitor, single point] |
| CCS(=O)(=O)c1ccc(N=Nc2ccc(O)c3ncccc23)c(OC)c1 | inconclusive [inhibitor, partial curve, poor fit] |
| COc1ccccc1NC(=O)c1ccc(NC(=O)c2ccco2)cc1 | inconclusive [inhibitor, single point] |
| O=C(NCc1nc2ccccc2[nH]1)C1=C[C@H](c2csc3ccccc23)C[C@H](OCc2ccc(CO)cc2)O1 | active: 11.7 µM |
| COc1ccc(CNC(=O)c2c([S-])n(-c3ccc(C)cc3)c3cccc[n+]23)cc1 | inconclusive [inhibitor, single point] |
| c1ccc(-c2cn(C[C@H]3CC[C@H](Cn4cc(-c5ccccn5)nn4)O3)nn2)nc1 | inconclusive [inhibitor, full curve, poor fit] |
| Brc1ccc(C2=Nn3c(nnc3-c3n[nH]c4c3CCC4)SC2)cc1 | inconclusive [inhibitor, single point] |

| SMILES | Potency |
| --- | --- |
| COc1ccc(N(CC(=O)Nc2ccc(S(=O)(=O)N3CCOCC3)cc2)S(=O)(=O)c2ccccc2)cc1 | active: 10.4 µM |
| O=C(C1CCCCC1)N1CCN=C1SCc1cccc([N+](=O)[O-])c1 | inactive |
| C=CCN(C(=O)c1csnn1)C(C(=O)NC1CCCC1)c1ccccc1F (stereo not drawn) | inactive |
| Cc1ccc(Cn2c(-c3nonc3N)nc3ccccc32)cc1 | inactive |
| COc1ccc(CCNC(=O)CNS(=O)(=O)c2ccc(F)c(Cl)c2)cc1OC | inconclusive [inhibitor, single point] |
| CC(C)OC(=O)CSc1nnc(-c2cnccn2)n1-c1ccc(Cl)cc1 | inconclusive [inhibitor, partial curve, poor fit] |
| Cc1[nH]c(SCC(=O)Nc2cc(S(C)(=O)=O)ccc2Cl)nc1Cc1ccccc1 | inconclusive [inhibitor, single point] |
| CCOc1ncccc1C(=O)Nc1nnc(C2CC2)s1 | inconclusive [inhibitor, single point] |
| Cc1ccc(NC(=O)C2CCN(c3nc(C)cc(C)n3)CC2)cc1 | inconclusive [inhibitor, single point] |
| COc1ccc(C(=O)C2CCCN(Cc3ccc(C#CCCO)cc3)C2)c(OC)c1 (stereo not drawn) | inconclusive [inhibitor, single point] |
| CCOc1ccc(S(=O)(=O)NCCCl)cc1 | inactive |
| CC(Oc1ccc(Cl)cc1)C(=O)Nc1sccc1C(N)=O (stereo not drawn) | inconclusive [inhibitor, single point] |
| O=C(Nc1cc(Br)ccc1O)c1cc(-c2ccc3c(c2)OCO3)on1 | inconclusive [inhibitor, partial curve] |
| COc1ccc(C(=O)NC2(C(F)(F)F)NC(=O)N(CCCc3ccccc3)C2=O)cc1OC (stereo not drawn) | inconclusive [inhibitor, partial curve, poor fit] |
| N#C/C(=N\Nc1cccc(Cl)c1)C(=O)c1ccccc1 | inactive |
| CC(Nc1nc(N2CCNCC2)nc2ccccc12)c1ccccc1 (stereo not drawn) | active: 2.94 µM |
| CCOc1ccc(-c2csc(/C(C#N)=C\c3ccc(O)c([N+](=O)[O-])c3)n2)cc1 | inconclusive [inhibitor, single point] |
| On1c(-c2ccccc2)nc2ccc(Cl)cc21 | inconclusive [inhibitor, single point] |
| O=C(CCCCCn1c(=O)[nH]c2ccsc2c1=O)N1CCCCC1 | active: 11.7 µM |
| CCCCn1c(N)c(N(CCOC)C(=O)CN(C)S(=O)(=O)c2ccc(Cl)cc2)c(=O)[nH]c1=O | inconclusive [inhibitor, full curve, poor fit] |
| CC(=O)Nc1ccc(S(=O)(=O)NCC2CCC(C(=O)N3CCN(c4ccccn4)CC3)CC2)cc1 (stereo not drawn) | inconclusive [inhibitor, partial curve] |

| SMILES | Potency |
| --- | --- |
| CCc1cccc(C)c1N(C(=O)Cn1c(=O)[nH]c2ccccc21)C(C)COC (stereo not drawn) | inconclusive [inhibitor, single point] |
| COc1ccc(Cn2c(=O)[nH]c3cc(C(=O)NCCc4ccc(S(N)(=O)=O)cc4)ccc3c2=O)cc1 | inconclusive [inhibitor, partial curve] |
| CCO[C@@H]1OC(C(=O)NCc2nc3ccccc3[nH]2)=C[C@H](C2CCCCC2)[C@H]1CCCO | inconclusive [inhibitor, single point] |
| Cc1cc(NC(=O)CN2C(=O)CC(c3ccco3)Sc3ccccc32)no1 (stereo not drawn) | inconclusive [inhibitor, single point] |
| CCC(C)c1ccccc1NC(=O)C(C)N(C)Cc1cccc(OC)c1 (stereo not drawn) | inconclusive [inhibitor, single point] |
| CCNc1nc(NCC)n2c(SCC(=O)N3CC4(C)CC3CC(C)(C)C4)nnc2n1 (stereo not drawn) | inconclusive [inhibitor, single point] |
| C=C1C(=O)O[C@@H]2C[C@@H](C)[C@@H]3C=CC(=O)[C@@]3(C)[C@@H](O)[C@H]12 | active: 0.828 µM |
| CCn1cc(CN2CCC(C(=O)Nc3cccc(-c4cccc(OC)c4)c3)CC2)c(C)n1 | inconclusive [inhibitor, partial curve] |
| Cn1c2ccc(F)cc2c2nnc(SCCN3CCCCC3)nc21 | inconclusive [inhibitor, single point] |
| CCOc1ccc(NC(=O)CSc2nc3ccccc3nc2N2CC(C)OC(C)C2)cc1 (stereo not drawn) | inconclusive [inhibitor, full curve, poor fit] |
| CCOC(=O)c1c(S(=O)(=O)N2CCCC(C)C2)c(C)n(C)c1C (stereo not drawn) | inconclusive [inhibitor, partial curve, poor fit] |
| Cc1ccccc1NC1=C/C(=N\S(=O)(=O)c2cccs2)c2ccccc2C1=O | active: 0.0928 µM |
| COCCN(C(=O)Cn1nnc2ccccc21)C(C(=O)NC1CCCC1)c1ccc(OC)cc1OC (stereo not drawn) | inconclusive [inhibitor, partial curve] |
| Cc1ccc(NC(=S)NC2CCCC2)c(C)c1 | inconclusive [inhibitor, single point] |
| COc1ccc(C2CC(c3ccccc3)=NN2C(=S)Nc2ccccc2)cc1 (stereo not drawn) | inconclusive [inhibitor, single point] |
| C#CCOc1ccccc1CNC1CCN(Cc2ccccc2)CC1 | active: 9.28 µM |
| CC(C)Cn1c(CN(Cc2ccccc2)Cc2ccccc2)nc2c1c(=O)n(C)c(=O)n2C | inconclusive [inhibitor, single point] |
| CCCn1c(SCC(=O)Nc2ccc(NC(=O)CC)cc2)nc2c1c(=O)n(C)c(=O)n2C | inconclusive [inhibitor, single point] |
| COc1ccc(CCNC(=O)[C@H](CC(C)C)NC(=O)N2CCn3c2nc2ccccc23)cc1OC | inconclusive [inhibitor, partial curve] |
| Cc1cc2nc(/N=C(\N)NC(=O)N3c4ccccc4Sc4ccccc43)nc(C)c2cc1C | active: 8.28 µM |
| CCCCn1c(-c2cccc3ccccc23)nc2cc3[nH]c(=O)c(C(C)C)nc3cc21 | inconclusive [inhibitor, single point] |
